In patent publication US9718818B2, “Compounds inhibiting leucine-rich repeat kinase enzyme activity” (MERCK SHARP & DOHME CORP., priority 2013, dated 2017):

Target: LRRK2 (G2019S mutation, GST-LRRK2 (amino acids 970-2527)) (Homo sapiens, UniProt Q5S007, G2019S)
Assay: LRRK2 Km ATP LanthaScreen Assay
Details: IC50 (nM), mean IC50 of several tests, fluorescein LRRKtide substrate, TR-FRET

`COCCNc1cc(-c2n[nH]c3cnc(-c4cnccc4OC)cc23)ccn1` [Example A1] and `COc1ccncc1-c1cc2c(-c3ccnc(N4CCC4)c3)n[nH]c2cn1` [Example B1.6] are within 1.5-fold of each other in IC50: 0.6 nM for the first, 0.65 nM for the second.

First: CN1CCN(c2cc(-c3n[nH]c4ccc(OC5(C)CC5)nc34)ncn2)CC1 [Example AB1]
Second: CN1CCN(c2cc(-c3n[nH]c4cnc(C5CC5)cc34)ccn2)CC1 [Example E3]
The IC50 of the first is 4.3-fold higher: 593 nM for the first, 139 nM for the second.

`OC1CN(c2cc(-c3n[nH]c4cnc(-c5cccnc5)cc34)ccn2)C1` [Example B1.2] and `O[C@@H]1CCN(c2cc(-c3n[nH]c4cnc(-c5cccnc5)cc34)ccn2)C1` [Example B1.3] are within 1.5-fold of each other in IC50: 3 nM for the first, 4.4 nM for the second.

Compared with `O[C@H]1CCN(c2cc(-c3n[nH]c4cnc(-c5cccnc5)cc34)ccn2)C1` [Example B1.4], `CO[C@H]1CCN(c2cc(-c3n[nH]c4cnc(-c5cccnc5)cc34)ccn2)C1` [Example B2.1] is 1.8-fold lower in IC50: 2.1 nM for the first, 1.2 nM for the second. The second is the more potent here.

`COc1ccncc1-c1cc2c(-c3ccnc(N4CC[C@H](O)C4)c3)n[nH]c2cn1` [Example B1.7] and `COc1ccncc1-c1cc2c(-c3ccnc(N4CC(OC)C4)c3)n[nH]c2cn1` [Example B1.8] are within 1.5-fold of each other in IC50: 0.69 nM for the first, 0.7 nM for the second.

Compared with `COc1ccncc1-c1cc2c(-c3ccnc(N4CCOCC4)c3)n[nH]c2cn1` [Example B1.9], `COc1ccncc1-c1ccc2[nH]nc(-c3ccnc(N4CCOCC4)c3)c2n1` [Example B1.12] is higher in IC50: less than 0.6 nM for the first, 2.5 nM for the second.

Going from `COc1ccc(-c2cc3c(-c4ccnc(N5CCOCC5)c4)n[nH]c3cn2)c(OC)n1` [Example B1.10] to `COc1ncc(F)cc1-c1cc2c(-c3ccnc(N4CCOCC4)c3)n[nH]c2cn1` [Example B1.11], the IC50 rises from 189 nM to 382 nM (2-fold).

First: Cn1cc(-c2ccc3[nH]nc(-c4ccnc(N5CCOCC5)c4)c3n2)cn1 [Example B1.13]
Second: Cn1cc(-c2cc3c(-c4ccnc(N5CCOCC5)c4)n[nH]c3cn2)cn1 [Example D1.2]
The IC50 of the first is higher: 2.66 nM for the first, less than 0.6 nM for the second.

Compared with `COC1CN(c2cc(-c3n[nH]c4cnc(-c5cccnc5)cc34)ccn2)C1` [Example B1], `CO[C@@H]1CCN(c2cc(-c3n[nH]c4cnc(-c5cccnc5)cc34)ccn2)C1` [Example B2.2] is 6.1-fold lower in IC50: 7.3 nM for the first, 1.2 nM for the second. The second is the more potent here.

First: Cn1cc(-c2cc3c(-c4ccnc(-n5ccnc5)c4)n[nH]c3cn2)cn1 [Example B3.1]
Second: Cn1cc(-c2cc3c(-c4ccnc(N5CC(F)C5)c4)n[nH]c3cn2)cn1 [Example D2.1]
The IC50 of the first is 1.9-fold higher: 7.2 nM for the first, 3.8 nM for the second.

`c1cc(-c2n[nH]c3cnc(C4CC4)cc23)cc(N2CCOCC2)n1` [Example C1] and `COc1cc2c(-c3ccnc(N4CCOCC4)c3)n[nH]c2cn1` [Example F1] are within 1.5-fold of each other in IC50: 53 nM for the first, 52.5 nM for the second.

Compared with `COC1CN(c2cc(-c3n[nH]c4cnc(-c5cnn(C)c5)cc34)ccn2)C1` [Example D1.1], `COCCNc1cc(-c2n[nH]c3cnc(-c4cnn(C)c4)cc23)ccn1` [Example D1.3] is 2.3-fold higher in IC50: 1.04 nM for the first, 2.35 nM for the second. The first is the more potent here.

Compared with `CS(=O)(=O)N1CCN(c2cc(-c3n[nH]c4cnc(C5CC5)cc34)ccn2)CC1` [Example E1], `COC1CCN(c2cc(-c3n[nH]c4cnc(C5CC5)cc34)ccn2)CC1` [Example E2] is 1.6-fold higher in IC50: 97.8 nM for the first, 155 nM for the second. The first is the more potent here.

First: COc1cc2c(-c3ccnc(N4CCN(C)C(=O)C4)c3)n[nH]c2cn1 [Example F2]
Second: C=CCOc1cc2c(-c3ccnc(N4CCOCC4)c3)n[nH]c2cn1 [Example G2]
The IC50 of the first is 2.1-fold higher: 217 nM for the first, 104 nM for the second. The second is the more potent here.

Compared with `FCCOc1cc2c(-c3ccnc(N4CCOCC4)c3)n[nH]c2cn1` [Example G1], `CCCOc1cc2c(-c3ccnc(N4CCOCC4)c3)n[nH]c2cn1` [Example G3] is 1.6-fold lower in IC50: 149 nM for the first, 94.7 nM for the second.

Compared with `FC(F)COc1cc2c(-c3ccnc(N4CCOCC4)c3)n[nH]c2cn1` [Example G4], `FC(F)Oc1cc2c(-c3ccnc(N4CCOCC4)c3)n[nH]c2cn1` [Example G7] is 3.8-fold lower in IC50: 186 nM for the first, 49 nM for the second. The second is the more potent here.

First: [2H]C([2H])([2H])C([2H])(Oc1cc2c(-c3ccnc(N4CCOCC4)c3)n[nH]c2cn1)C([2H])([2H])[2H] [Example G5]
Second: [2H]C([2H])([2H])C([2H])(Oc1cc2c(-c3ccnc(N4C([2H])([2H])C([2H])([2H])OC([2H])([2H])C4([2H])[2H])c3)n[nH]c2cn1)C([2H])([2H])[2H] [Example G6]
The IC50 of the first is 1.6-fold lower: 26.7 nM for the first, 43.1 nM for the second.

First: FC(F)(F)COc1cc2c(-c3ccnc(N4CCOCC4)c3)n[nH]c2cn1 [Example G8]
Second: Clc1ncc2[nH]nc(-c3ccnc(N4CCOCC4)c3)c2n1 [Example H1]
The IC50 of the first is 3.2-fold lower: 433 nM for the first, 1400 nM for the second. The first is the more potent here.

First: CC(C)Oc1ncc2[nH]nc(-c3ccnc(N4CCOCC4)c3)c2n1 [Example H2]
Second: COc1ccc2[nH]nc(-c3ccnc(N4CCOCC4)c3)c2n1 [Example I1]
The IC50 of the first is 1.6-fold lower: 26.8 nM for the first, 42.9 nM for the second. The first is the more potent here.

`Oc1ccc2[nH]nc(-c3ccnc(N4CCOCC4)c3)c2n1` [Example I2] gave an IC50 of 814 nM.

Same assay, conditions: LRRK2 IC50 (nM), mean IC50 of several tests, fluorescein LRRKtide substrate, TR-FRET

Going from `CC(C)Oc1cc2c(-c3ccnc(N4CCOCC4)c3)n[nH]c2cn1` [Example J1] to `CC(C)Oc1cc2c(-c3ccnc(N4CCCC4)c3)n[nH]c2cn1` [Example J8], the IC50 rises from 7.15 nM to 28 nM (3.9-fold).

Going from `CC(C)Oc1cc2c(-c3ccnc(N4CC5CCC(C4)O5)c3)n[nH]c2cn1` [Example J2] to `CC(C)Oc1cc2c(-c3ccnc(N4CCC(O)C4)c3)n[nH]c2cn1` (centres unmarked) [Example J11], the IC50 falls from 64 nM to 31 nM (2.1-fold).

Compared with `CC(C)Oc1cc2c(-c3ccnc(N4CCOC5(CC5)C4)c3)n[nH]c2cn1` [Example J3], `CC(C)Oc1cc2c(-c3ccnc(N4CCC(C)(O)C4)c3)n[nH]c2cn1` (centres unmarked) [Example J32] is 3.4-fold higher in IC50: 11.9 nM for the first, 40 nM for the second.

Going from `CC(C)Oc1cc2c(-c3ccnc(N4C5CCC4COC5)c3)n[nH]c2cn1` [Example J4] to `CC(C)Oc1cc2c(-c3ccnc(N4CCC(O)CC4)c3)n[nH]c2cn1` [Example J5], the IC50 falls from 85.4 nM to 37 nM (2.3-fold).

Compared with `CC(C)Oc1cc2c(-c3ccnc(N4CCN(CCO)CC4)c3)n[nH]c2cn1` [Example J6], `CC(C)Oc1cc2c(-c3ccnc(N4CCN(C)CC4)c3)n[nH]c2cn1` [Example J10] is 1.5-fold higher in IC50: 16 nM for the first, 24 nM for the second.

`CC(C)Oc1cc2c(-c3ccnc(N4CCCCC4)c3)n[nH]c2cn1` [Example J7] and `CC(C)Oc1cc2c(-c3ccnc(N4CC[S+]([O-])CC4)c3)n[nH]c2cn1` [Example J22] are within 1.5-fold of each other in IC50: 45 nM for the first, 67 nM for the second.

Going from `COC1CCCN(c2cc(-c3n[nH]c4cnc(OC(C)C)cc34)ccn2)C1` (centres unmarked) [Example J9] to `CC(C)Oc1cc2c(-c3ccnc(N4CC[C@@H](F)C4)c3)n[nH]c2cn1` [Example J41], the IC50 falls from 51 nM to 26 nM (2-fold). The second is the more potent here.

`CC(C)Oc1cc2c(-c3ccnc(N4CCN(c5ncccn5)CC4)c3)n[nH]c2cn1` [Example J12] and `CC(C)Oc1cc2c(-c3ccnc(N4CCN(c5ccncn5)CC4)c3)n[nH]c2cn1` [Example J39] are within 1.5-fold of each other in IC50: 51 nM for the first, 58 nM for the second.

`CCN(CC)C1CCN(c2cc(-c3n[nH]c4cnc(OC(C)C)cc34)ccn2)C1` (centres unmarked) [Example J13] and `CC(C)Oc1cc2c(-c3ccnc(N4CC[C@H](F)C4)c3)n[nH]c2cn1` [Example J42] are within 1.5-fold of each other in IC50: 29 nM for the first, 26 nM for the second.

Compared with `CC(C)Oc1cc2c(-c3ccnc(N4CC(S(C)(=O)=O)C4)c3)n[nH]c2cn1` [Example J14], `CO[C@H]1CN(c2cc(-c3n[nH]c4cnc(OC(C)C)cc34)ccn2)C[C@@H]1O` [Example J19] is 1.7-fold higher in IC50: 48 nM for the first, 80 nM for the second. The first is the more potent here.

Compared with `CC(C)Oc1cc2c(-c3ccnc(N4CCN(C)C(=O)C4)c3)n[nH]c2cn1` [Example J15], `CC(C)Oc1cc2c(-c3ccnc(N4CCn5cnnc5C4)c3)n[nH]c2cn1` [Example J31] is 1.8-fold higher in IC50: 44 nM for the first, 81 nM for the second.

Going from `CC(C)Oc1cc2c(-c3ccnc(N4CCN(CC(F)(F)F)CC4)c3)n[nH]c2cn1` [Example J16] to `CC(C)Oc1cc2c(-c3ccnc(N4CCN(CC5CC5)CC4)c3)n[nH]c2cn1` [Example J28], the IC50 rises from 40 nM to 82 nM (2-fold). The first is the more potent here.

First: CC(C)Oc1cc2c(-c3ccnc(N4C[C@H](O)[C@@H](N(C)C)C4)c3)n[nH]c2cn1 [Example J17]
Second: CC(C)Oc1cc2c(-c3ccnc(N4CC(C(C)(C)O)C4)c3)n[nH]c2cn1 [Example J18]
The IC50 of the first is 1.8-fold lower: 44 nM for the first, 77 nM for the second. The first is the more potent here.

First: CC(C)Oc1cc2c(-c3ccnc(N4CCCC(n5cncn5)C4)c3)n[nH]c2cn1 (centres unmarked) [Example J20]
Second: CC(C)Oc1cc2c(-c3ccnc(N4CC(n5cccn5)C4)c3)n[nH]c2cn1 [Example J21]
The IC50 of the first is 3-fold lower: 28 nM for the first, 83 nM for the second.

First: CC(C)Oc1cc2c(-c3ccnc(N4CCc5oc(C6CC6)nc5C4)c3)n[nH]c2cn1 [Example J23]
Second: CC(C)Oc1cc2c(-c3ccnc(N4CCc5nc(C6CC6)oc5C4)c3)n[nH]c2cn1 [Example J34]
The IC50 of the first is 2.3-fold higher: 129 nM for the first, 55 nM for the second.

Compared with `CC(C)Oc1cc2c(-c3ccnc(N4CCN(CC5CCC5)CC4)c3)n[nH]c2cn1` [Example J24], `CC(C)Oc1cc2c(-c3ccnc(N4CCN(C5CC5)CC4)c3)n[nH]c2cn1` [Example J43] is 3.7-fold lower in IC50: 127 nM for the first, 34 nM for the second.

Going from `Cc1nonc1N1CCN(c2cc(-c3n[nH]c4cnc(OC(C)C)cc34)ccn2)CC1` [Example J25] to `CC(C)Oc1cc2c(-c3ccnc(N4CCN(c5nnc(C6CC6)o5)CC4)c3)n[nH]c2cn1` [Example J35], the IC50 falls from 102 nM to 60 nM (1.7-fold). The second is the more potent here.

`CC(C)Oc1cc2c(-c3ccnc(N4CCn5cc(C(F)(F)F)nc5C4)c3)n[nH]c2cn1` [Example J26] and `CCc1nnc2n1CCN(c1cc(-c3n[nH]c4cnc(OC(C)C)cc34)ccn1)C2` [Example J29] are within 1.5-fold of each other in IC50: 135 nM for the first, 102 nM for the second.

Compared with `CC(C)Oc1cc2c(-c3ccnc(N4CCC(F)(F)CC4)c3)n[nH]c2cn1` [Example J27], `CC(C)Oc1cc2c(-c3ccnc(N4CC(O)(C(C)C)C4)c3)n[nH]c2cn1` [Example J38] is 2.6-fold lower in IC50: 143 nM for the first, 56 nM for the second.

Going from `CC(C)Oc1cc2c(-c3ccnc(N4CCC(c5cnccn5)CC4)c3)n[nH]c2cn1` [Example J30] to `CC(C)Oc1cc2c(-c3ccnc(N4CC(n5cnnc5)C4)c3)n[nH]c2cn1` [Example J37], the IC50 rises from 20 nM to 100 nM (5-fold). The first is the more potent here.

Going from `Cc1nc2c(o1)CN(c1cc(-c3n[nH]c4cnc(OC(C)C)cc34)ccn1)CC2` [Example J33] to `Cc1noc(C2CN(c3cc(-c4n[nH]c5cnc(OC(C)C)cc45)ccn3)C2)n1` [Example J36], the IC50 rises from 46 nM to 163 nM (3.5-fold). The first is the more potent here.

`COC1(C)CN(c2cc(-c3n[nH]c4cnc(OC(C)C)cc34)ccn2)C1` [Example J40] and `CCS(=O)(=O)N1CCN(c2cc(-c3n[nH]c4cnc(OC(C)C)cc34)ccn2)CC1` [Example K1] are within 1.5-fold of each other in IC50: 42 nM for the first, 45 nM for the second.
